# Residue numbers refer to the chain shown, from its start. This is one part of the list.
# T1: RBFOX1 RRM (Homo sapiens, UniProt Q9NWB1 109-208)
# T1 sequence: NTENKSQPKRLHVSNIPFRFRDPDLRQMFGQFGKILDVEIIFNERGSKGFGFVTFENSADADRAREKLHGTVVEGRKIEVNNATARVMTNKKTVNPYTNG
# B1: AGAACGG (DNA:RNA)
# RNA: GGGAGACCGGAAUUCAGAUUGUCCAGAACGGUUAAAUCCCGUCGUAGCCACCA
# DNA 1: CAATCTGAATTCCGGTCTCCC
# DNA 2: TGGTGGCTACGACGGGATT
# B2: CGGGAAG (DNA:RNA)
# RNA: B1 RNA with A25C, A27G, A28G, C29A, G30A
# DNA 1: CAATCTGAATTCCGGTCTCCC
# DNA 2: TGGTGGCTACGACGGGATT
# B3: ACUGUCA (DNA:RNA)
# RNA: B1 RNA with G26C, A27U, A28G, C29U, G30C, G31A
# DNA 1: CAATCTGAATTCCGGTCTCCC
# DNA 2: TGGTGGCTACGACGGGATT
# B4: AUCUAAA (DNA:RNA)
# RNA: B1 RNA with G26U, A27C, A28U, C29A, G30A, G31A
# DNA 1: CAATCTGAATTCCGGTCTCCC
# DNA 2: TGGTGGCTACGACGGGATT
# B5: UCGAUGU (DNA:RNA)
# RNA: B1 RNA with A25U, G26C, A27G, C29U, G31U
# DNA 1: CAATCTGAATTCCGGTCTCCC
# DNA 2: TGGTGGCTACGACGGGATT
# B6: CUUACCC (DNA:RNA)
# RNA: B1 RNA with A25C, G26U, A27U, G30C, G31C
# DNA 1: CAATCTGAATTCCGGTCTCCC
# DNA 2: TGGTGGCTACGACGGGATT
# B7: UAUAAGA (DNA:RNA)
# RNA: B1 RNA with A25U, G26A, A27U, C29A, G31A
# DNA 1: CAATCTGAATTCCGGTCTCCC
# DNA 2: TGGTGGCTACGACGGGATT
# B8: UAAAUAA (DNA:RNA)
# RNA: B1 RNA with A25U, G26A, C29U, G30A, G31A
# DNA 1: CAATCTGAATTCCGGTCTCCC
# DNA 2: TGGTGGCTACGACGGGATT
# B9: UCAACAU (DNA:RNA)
# RNA: B1 RNA with A25U, G26C, G30A, G31U
# DNA 1: CAATCTGAATTCCGGTCTCCC
# DNA 2: TGGTGGCTACGACGGGATT
# B10: AACGAUU (DNA:RNA)
# RNA: B1 RNA with G26A, A27C, A28G, C29A, G30U, G31U
# DNA 1: CAATCTGAATTCCGGTCTCCC
# DNA 2: TGGTGGCTACGACGGGATT
# B11: UAGCCAU (DNA:RNA)
# RNA: B1 RNA with A25U, G26A, A27G, A28C, G30A, G31U
# DNA 1: CAATCTGAATTCCGGTCTCCC
# DNA 2: TGGTGGCTACGACGGGATT
# B12: UAAAGGG (DNA:RNA)
# RNA: B1 RNA with A25U, G26A, C29G
# DNA 1: CAATCTGAATTCCGGTCTCCC
# DNA 2: TGGTGGCTACGACGGGATT
# B13: CAGGUAA (DNA:RNA)
# RNA: GGGAGACCGGAAUUCAGAUUGUCCCAGGUAAUUAAAUCCCGUCGUAGCCACCA
# DNA 1: CAATCTGAATTCCGGTCTCCC
# DNA 2: TGGTGGCTACGACGGGATT
# B14: UCGGGAA (DNA:RNA)
# RNA: B13 RNA with C25U, A26C, U29G
# DNA 1: CAATCTGAATTCCGGTCTCCC
# DNA 2: TGGTGGCTACGACGGGATT
# B15: UUGUUUA (DNA:RNA)
# RNA: B13 RNA with C25U, A26U, G28U, A30U
# DNA 1: CAATCTGAATTCCGGTCTCCC
# DNA 2: TGGTGGCTACGACGGGATT
# B16: UUAAACA (DNA:RNA)
# RNA: B1 RNA with A25U, G26U, C29A, G30C, G31A
# DNA 1: CAATCTGAATTCCGGTCTCCC
# DNA 2: TGGTGGCTACGACGGGATT
# B17: GUAGAGG (DNA:RNA)
# RNA: B1 RNA with A25G, G26U, A28G, C29A
# DNA 1: CAATCTGAATTCCGGTCTCCC
# DNA 2: TGGTGGCTACGACGGGATT
# B18: AAGACAG (DNA:RNA)
# RNA: B1 RNA with G26A, A27G, G30A
# DNA 1: CAATCTGAATTCCGGTCTCCC
# DNA 2: TGGTGGCTACGACGGGATT
# B19: CCAGGGG (DNA:RNA)
# RNA: B1 RNA with A25C, G26C, A28G, C29G
# DNA 1: CAATCTGAATTCCGGTCTCCC
# DNA 2: TGGTGGCTACGACGGGATT
# B20: GCCGUAU (DNA:RNA)
# RNA: B13 RNA with C25G, A26C, G27C, A31U
# DNA 1: CAATCTGAATTCCGGTCTCCC
# DNA 2: TGGTGGCTACGACGGGATT
# B21: UAUACCU (DNA:RNA)
# RNA: B1 RNA with A25U, G26A, A27U, G30C, G31U
# DNA 1: CAATCTGAATTCCGGTCTCCC
# DNA 2: TGGTGGCTACGACGGGATT
# B22: CAUACGU (DNA:RNA)
# RNA: B1 RNA with A25C, G26A, A27U, G31U
# DNA 1: CAATCTGAATTCCGGTCTCCC
# DNA 2: TGGTGGCTACGACGGGATT
# B23: GUGAGCU (DNA:RNA)
# RNA: B1 RNA with A25G, G26U, A27G, C29G, G30C, G31U
# DNA 1: CAATCTGAATTCCGGTCTCCC
# DNA 2: TGGTGGCTACGACGGGATT
# B24: GAAAAUU (DNA:RNA)
# RNA: B1 RNA with A25G, G26A, C29A, G30U, G31U
# DNA 1: CAATCTGAATTCCGGTCTCCC
# DNA 2: TGGTGGCTACGACGGGATT
# B25: UUGUGGU (DNA:RNA)
# RNA: B1 RNA with A25U, G26U, A27G, A28U, C29G, G31U
# DNA 1: CAATCTGAATTCCGGTCTCCC
# DNA 2: TGGTGGCTACGACGGGATT
# B26: ACCACGU (DNA:RNA)
# RNA: B1 RNA with G26C, A27C, G31U
# DNA 1: CAATCTGAATTCCGGTCTCCC
# DNA 2: TGGTGGCTACGACGGGATT
# B27: CCUAGCU (DNA:RNA)
# RNA: B1 RNA with A25C, G26C, A27U, C29G, G30C, G31U
# DNA 1: CAATCTGAATTCCGGTCTCCC
# DNA 2: TGGTGGCTACGACGGGATT
# B28: AAUAAUG (DNA:RNA)
# RNA: B1 RNA with G26A, A27U, C29A, G30U
# DNA 1: CAATCTGAATTCCGGTCTCCC
# DNA 2: TGGTGGCTACGACGGGATT
# B29: ACCUCGG (DNA:RNA)
# RNA: B1 RNA with G26C, A27C, A28U
# DNA 1: CAATCTGAATTCCGGTCTCCC
# DNA 2: TGGTGGCTACGACGGGATT
# B30: CAGCCAU (DNA:RNA)
# RNA: B13 RNA with G28C, U29C, A31U
# DNA 1: CAATCTGAATTCCGGTCTCCC
# DNA 2: TGGTGGCTACGACGGGATT
# B31: UAUCACU (DNA:RNA)
# RNA: B13 RNA with C25U, G27U, G28C, U29A, A30C, A31U
# DNA 1: CAATCTGAATTCCGGTCTCCC
# DNA 2: TGGTGGCTACGACGGGATT
# Biological target: T1, RBFOX1 RRM
# Test: EMSA; HiTS-Eq, 1 nM pool, 10 min; buffer printed only for the single-RNA assays: 10 mM Tris pH 7.5, 150 mM NaCl, 3.4 mM EDTA, 0.001% NP-40, 30 C
# Details: tags: His6 N-terminal (pET28a); label: 5' 32P
# Summary of the method: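 A pool of RNA with 7 randomized nucleotides, 5′-radiolabelled and with DNA-annealed flanks, was equilibrated at 1 nM for 10 min in 50 µL with purified RbFox RRM, wild type or mutant, across increasing protein concentrations. Free RNA was separated by 8% native PAGE, excised, reverse-transcribed, barcoded by PCR and sequenced. Relative association constants were obtained from read-count changes of each RNA species versus the control reaction and normalised to the cognate motif.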
row,Binder,binding signal
1,B1,0.0114 KA relative to UGCAUGU
2,B2,0.0198 KA relative to UGCAUGU
3,B3,0.00568 KA relative to UGCAUGU
4,B4,0.00231 KA relative to UGCAUGU
5,B5,0.0161 KA relative to UGCAUGU
6,B6,0.00105 KA relative to UGCAUGU
7,B7,0.00743 KA relative to UGCAUGU
8,B8,0.00303 KA relative to UGCAUGU
9,B9,0.0012 KA relative to UGCAUGU
10,B10,0.00375 KA relative to UGCAUGU
11,B11,0.00798 KA relative to UGCAUGU
12,B12,0.00447 KA relative to UGCAUGU
13,B13,0.00565 KA relative to UGCAUGU
14,B14,0.0104 KA relative to UGCAUGU
15,B15,0.012 KA relative to UGCAUGU
16,B16,0.00267 KA relative to UGCAUGU

row,Binder,binding signal
1,B17,0.0106 KA relative to UGCAUGU
2,B18,0.00411 KA relative to UGCAUGU
3,B19,0.00327 KA relative to UGCAUGU
4,B20,0.00914 KA relative to UGCAUGU
5,B21,0.001 KA relative to UGCAUGU
6,B22,0.00378 KA relative to UGCAUGU
7,B23,0.0163 KA relative to UGCAUGU
8,B24,0.00167 KA relative to UGCAUGU
9,B25,0.0188 KA relative to UGCAUGU
10,B26,0.00412 KA relative to UGCAUGU
11,B27,0.00722 KA relative to UGCAUGU
12,B28,0.00612 KA relative to UGCAUGU
13,B29,0.00718 KA relative to UGCAUGU
14,B30,0.00194 KA relative to UGCAUGU
15,B31,0.00813 KA relative to UGCAUGU

# Reference: paper PMC9911399, “Two distinct binding modes provide the RNA-binding protein RbFox with extraordinary sequence specificity”
